Laboratory results published in PubChem BioAssay AID1645887 (National Center for Advancing Translational Sciences (NCATS), 2021).
Values joined by “and” are separate entries in the source; they are usually repeats but may differ in a detail not shown here. Equal entries are not always repeated. Among all 16,000 compounds or so, about 40 (0.2%) were called active. Not shown: some 1% with an inconclusive outcome. Calls follow the shape of the dose curve; as a rule, active = well fitted activation curve with a large enough effect; inconclusive = small, poorly fitted or top-dose-only effect, or another doubt; inactive = no such curve, though single readings can be large or run the other way. This is one part of the list.

The compounds below were run against Rap guanine nucleotide exchange factor 4 (Homo sapiens) (UniProt Q8WZA2) (assay: Validation qHTS for agonist of cAMP-regulated guanine nucleotide exchange factor 4 (EPAC2)). Settings: EPAC2 Rap1B BODIPY-GDP exchange, fluorescence; activation: stronger effect = higher value.
In short: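 Signal normalized against 6.5 mM cAMP as agonist control. Mix of EPAC2 (100 nM), RAP1B-BODIPY-GDP (250 nM) and GDP (50 uM) was read kinetically at 480/540 nm, every 5 min over 30 min, after 5 min room-temperature incubation with compound.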
% is scaled to controls: 0 for no effect and ±100 for the full control effect.
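Also: exchange makes BODIPY-GDP fluorescence drop when released from Rap1B; series mostly up to about 150 µM.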

Chain of UniProt Q8WZA2 (Q8WZA2 whole entry, looked up): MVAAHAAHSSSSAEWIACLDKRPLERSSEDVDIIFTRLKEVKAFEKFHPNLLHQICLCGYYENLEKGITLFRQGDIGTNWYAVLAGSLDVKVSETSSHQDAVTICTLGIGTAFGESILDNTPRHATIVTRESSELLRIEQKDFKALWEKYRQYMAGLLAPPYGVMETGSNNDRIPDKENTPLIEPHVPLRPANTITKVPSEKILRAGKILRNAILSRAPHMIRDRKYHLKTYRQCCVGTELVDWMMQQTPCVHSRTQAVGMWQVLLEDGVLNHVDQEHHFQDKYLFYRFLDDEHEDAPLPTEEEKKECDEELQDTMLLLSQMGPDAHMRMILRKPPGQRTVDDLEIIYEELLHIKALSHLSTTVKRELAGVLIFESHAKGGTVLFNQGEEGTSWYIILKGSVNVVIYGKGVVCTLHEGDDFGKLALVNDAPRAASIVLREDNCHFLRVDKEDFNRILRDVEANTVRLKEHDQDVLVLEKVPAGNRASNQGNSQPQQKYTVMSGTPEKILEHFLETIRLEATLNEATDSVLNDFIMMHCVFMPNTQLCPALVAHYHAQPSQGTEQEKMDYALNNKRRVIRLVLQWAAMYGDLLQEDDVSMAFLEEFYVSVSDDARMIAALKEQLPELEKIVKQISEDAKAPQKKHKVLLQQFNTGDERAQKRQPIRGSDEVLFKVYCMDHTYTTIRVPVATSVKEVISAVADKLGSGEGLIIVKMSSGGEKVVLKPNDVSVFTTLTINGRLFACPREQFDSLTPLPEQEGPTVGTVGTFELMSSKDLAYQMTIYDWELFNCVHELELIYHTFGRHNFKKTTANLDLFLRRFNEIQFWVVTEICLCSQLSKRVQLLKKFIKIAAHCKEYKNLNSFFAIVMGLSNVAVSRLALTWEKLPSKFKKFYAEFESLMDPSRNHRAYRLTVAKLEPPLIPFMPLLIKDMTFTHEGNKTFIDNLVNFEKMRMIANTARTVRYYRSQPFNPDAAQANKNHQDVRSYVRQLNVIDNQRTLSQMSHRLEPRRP

activation, inactive:
CN(C)c1ccc(-c2cncnc2NCc2cccnc2)cc1 4.29%, COc1cccc(N2[C@@H](CC(C)=O)c3cc(C(F)(F)F)ccc3S2(=O)=O)c1 -7.6%, CC(O)C(O)[C@H]1CNc2nc(N)[nH]c(=O)c2N1 (some centres not stated) -16.3%, CNS(=O)(=O)CCc1ccc2[nH]cc(C3CCN(C)CC3)c2c1 -3.74%, O=c1c(-c2ccccc2)nc2cncnc2n1C1CC1 -18.5%, CC(=O)Oc1ccccc1C(=O)O -7.43% and -1.21% and -9.5%, O=C(c1ccco1)N1CCC[C@@]2(CCN(c3ccccc3)C2)C1 -1.57%, O=C(O)[C@H]1NCCC[C@H]1C(=O)O -12.3%, c1ccc2c(-n3ccnc3)nc(-c3ccoc3)nc2c1 -8.81%, COCC(=O)Nc1cc(C(=O)N[C@H]2CCCCNC2=O)c2c(c1)nc(-c1ccncc1)n2C 4.22%, NCCC(=O)[N-][C@@H](Cc1cnc[nH]1)C(=O)O.[Zn] 8.37%, COc1cc(Cl)c(CN2CCOc3ccc(CN4CCCCC4CO)cc3C2)cc1OC (configuration not stated) -0.332%, Cc1cc(C(=O)NCC2Cc3cccc(-c4cncnc4)c3O2)c(C)o1 (configuration not stated) 7.7%, NCCCCN=C(N)N -11.5% [middle of 5 runs], O=c1c(-c2ccc(F)c(F)c2)nc2cncnc2n1Cc1ccc(F)cc1 -34.5%, Cc1cccc(CNc2nc(-c3ccoc3)nc3ccccc23)c1 -15.5%, OCCN1CCN(Cc2ccc3c(c2)CN(Cc2ccc4ccccc4c2)CCO3)CC1 -9.14%, CC1(C)S[C@@H]2[C@H](NC(=O)[C@@H](NC(=O)N3CCNC3=O)c3ccccc3)C(=O)N2[C@H]1C(=O)O -11.5%, COc1cc(=O)n2c(c1C(=O)NCc1ccc3c(c1)OCO3)CCN(C(=O)c1cccc(F)c1)CC2 -7.83%, NCC1O[C@@H](OC2C(N)CC(N)C(O)C2O[C@@H]2OC(CO)C(O)C2O)C(N)C(O)C1O (some centres not stated) -8.15%, O=c1[nH]c(=O)n([C@@H]2O[C@H](CO)[C@@H](O)[C@H]2O)cc1Br 6.22%, Cc1cnc(C)c(-c2cc(F)cc3c2OC(CNC(=O)C2CCOC2)C3)n1 (configuration not stated) -5.08%, COc1ccc2ccc(=O)oc2c1CC=C(C)C -25.7%, C[C@@H]1CCC(=O)N(CC[C@H](Sc2ccc(Br)cc2)c2ccccc2)CC1 0.427%, CS(=O)(=O)N1CCC[C@@]2(CCN(C(=O)Nc3ccccc3)C2)C1 -0.213%, CC1(C)[C@H](C(=O)O)N2C(=O)C[C@H]2S1(=O)=O 2.95%, NC1C(O)OC(CO)[C@@H](O)[C@@H]1O[C@H]1O[C@@H](C(=O)O)C(O)C(O)C1O (some centres not stated) 2.41%, C=CS(=O)(=O)O 6.25%, O=c1cnc2cnc(Oc3cccc(Cl)c3)nc2n1Cc1ccc(F)cc1 0.025%, O=C(c1cn(C2CCCN(Cc3cc(Cl)ccc3O)C2)nn1)N1CCCCC1 (configuration not stated) -0.543%, NC(=O)[C@@H]1CCCN1C(=O)CCN1Cc2ccccc2OC(c2ccccc2F)C1 (some centres not stated) -4.16%, COc1cc2c3cc1Oc1cc(ccc1O)C[C@@H]1c4c(cc(OC)c(O)c4Oc4ccc(cc4)C[C@@H]3N(C)CC2)CC[N+]1(C)C -7.35%, COC(=O)CC1C(C)(C)C(O)C2CC3=C4C=C(OC)OC(c5ccoc5)[C@]4(C)CCC3[C@@]1(C)C2=O (some centres not stated) 7.15%, CC(C)CN1CCC(=O)N(CCN=[N+]=[N-])CC1 -7.23%, Cn1c(=O)c(-c2ccc(Cl)cc2)nc2cnc(OCc3ccccc3)nc21 -14.4%, Cc1nc(-c2ccc(Cl)cc2)oc1COC(C)(C)C(=O)O -10.6%, COCCn1c(=O)c(-c2ccc(OC)cc2)nc2cnc(Oc3cccc(Cl)c3)nc21 6.47%, CN1CCc2cc(Cl)c(O)cc2[C@@H](c2ccccc2)C1 -12.4% and 0.709% and -24.7%, COc1ccccc1CNc1ncncc1-c1ccc2c(c1)OCO2 -0.45%, Nc1ccc(N2C(=O)c3ccccc3C2=O)c(Cl)c1 -21.3%, CCNc1ncc2nc(-c3ccccc3)c(=O)n(C)c2n1 -14.6%, CN(Cc1ccco1)c1ccnc(-c2cccnc2)n1 -0.387%, Cc1ncc(CO)c(CO)c1O -10.1%, Nc1nnnn1-c1ccccc1 -2.53%, COc1ccccc1C1CN(CCNC(=O)c2sccc2Cl)Cc2ccccc2O1 (configuration not stated) -2.19%, CCC1COCCS(=O)(=O)N1Cc1ccc(C)cc1 (configuration not stated) -21.5%, N#Cc1ccc(CN2CCCC3(CCN(S(=O)(=O)c4ccccc4)CC3)C2)cc1 -7.36%, COc1ccc2c(c1)CCc1cnc(-n3ncc(C(=O)N4CCN(CCO)CC4)c3C3CC3)nc1-2 -7.28%, Nc1ccc(O)c([N+](=O)[O-])c1 5.14%, CCO/C([O-])=N/c1c[n+](N2CCOCC2)no1 -4.45% and -0.689% and -12.5%, O=C(Nc1cccc(F)c1)N1CC[C@@]2(CCCNC2)C1 -21.3%, CCc1c(C)[nH]c2c1C(=O)C(CN1CCOCC1)CC2 (configuration not stated) -41.5% and -7.68%, COc1ccc(-c2nc3cnc(N4CCN(C)CC4)nc3n(Cc3cccs3)c2=O)cc1 10.6%, NC(=O)CNCCC(c1ccccc1)c1ccccc1 0.615%, CC(=O)OCC1OC(Oc2cc(OC(C)=O)c3c(=O)cc(-c4ccc(OC(C)=O)c(OC(C)=O)c4)oc3c2)C(OC(C)=O)C(OC(C)=O)C1OC(C)=O (configuration not stated) -28.6%, C=C1C2CC[C@@]3(C)C(c4ccoc4)OC(=O)C[C@@]13OC1CC(=O)C(C)(C)C(CC(=O)OC)[C@]12C (some centres not stated) -10.3%, COc1cc(=O)n2c(c1C(=O)N(C)Cc1nonc1C)CCN(C(=O)c1cc(C)cc(C)c1)CC2 -14.9%, CC(=O)[C@@H]1[C@H]2[C@H](C(=O)[C@H]3OC[C@@H]2O3)[C@H]2C=Cc3ccccc3N21 18.9%, Clc1ccccc1-c1nc(N2CCNCC2)c2ccccc2n1 -1.48%, COc1cccc(Cn2c(=O)c(-c3ccc(Cl)cc3)nc3cnc(N4CCOCC4)nc32)c1 7.83%, OC[C@]1(O)OC[C@@H](O)[C@H](O)[C@@H]1O -20.2%, Cc1ccc(SCCN2CCC(C(C)(C)C)CCC2=O)cc1 (configuration not stated) -7.42%, Cc1occc1C(=O)NCCN1Cc2ccccc2OC(c2ccccc2F)C1 (configuration not stated) 6.09%, Cc1ccc(S[C@@H](CCN2CC[C@H](NC(=O)OCc3ccccc3)CCC2=O)c2ccccc2)cc1 -6.99%, CC(C)c1c(O)c(-c2cc3c(c(C(C)C)c2O)CCC2C(C)(C)CCC[C@@]32C)cc2c1CCC1C(C)(C)CCC[C@@]21C (some centres not stated) 3.06%, Nc1ccc([N+](=O)[O-])cc1O -18.8%, CC(=O)Nc1ccccc1-c1nc(CNC(=O)c2ccc(F)c(F)c2)c(C)o1 -8.53%, COc1ncc2nc(-c3ccccc3)c(=O)n(CCc3ccccc3)c2n1 -3.34%, COc1cc(C(=O)NCCCCCC(=O)O)cc(OC)c1OC 7.6%, Cc1noc(C)c1-c1cc(N(C)Cc2ccco2)ncn1 -7.36%, Cc1ccnn1CC(=O)N1CCOc2c(cc(-c3ncc(C(F)(F)F)cc3Cl)cc2OCC2CCCO2)C1 (configuration not stated) 1.98%, COCCNc1nc(-c2cccc(OC)c2)nc2ccccc12 -20.7%, COc1ccc(-c2nc3cnc(OC)nc3n(Cc3cccc(OC)c3)c2=O)cc1 -15.5%, CC1=C(C(=O)O)N2C(=O)[C@@H](NC(=O)[C@H](N)C3=CCC=CC3)[C@H]2SC1 0.0061%, N[C@@H](CCC(=O)N[C@@H](CS)C(=O)NCC(=O)O)C(=O)O -35.5%, O=C(c1ccco1)N1CCC2(CCCN(c3ccncc3)C2)CC1 -14%, CC(=O)OC[C@H]1O[C@@H](n2ncc(=O)[nH]c2=O)[C@H](OC(C)=O)[C@@H]1OC(C)=O 5.43%, CCCOC(=O)c1cc(O)c(O)c(O)c1 6.33%, c1nc(NCCN2CCOCC2)c2cc(-c3ccc4c(c3)OCO4)ccc2n1 -11.6%, O=C(c1csnn1)N1CCC2(CCCN(C(c3ccccc3)c3ccccc3)C2)CC1 7.91%, Cn1c(=O)c(-c2ccccc2)nc2cnc(OCc3ccccc3)nc21 -13.2%, COCCn1c(=O)c(-c2cn(C)c3ccccc23)nc2cnc(N3CCOCC3)nc21 3.79%, CC(C)N=c1cc2n(-c3ccc(Cl)cc3)c3ccccc3nc-2cc1Nc1ccc(Cl)cc1 -15.2%, COCC(=O)N1CCC[C@@]2(CCN(Cc3ccc(C#N)cc3)C2)C1 -13%, COCCNc1cc(-c2ccccc2C(F)(F)F)ncn1 -18.9%, N[C@@H]1CONC1=O 1.13%, COc1ccc2c(=O)c(C)c(-c3ccccc3)oc2c1CN(C)C 1.79%
